{"source": "the supplement of paper PMC11417369", "note": "± gives the standard deviation of the averaged measurements. Some of the results follow."}
{"tested_on": "PfAP2-G AP2 domain (GST-tagged)", "assay": "gcPBM binding intensity (ln(normalized median fluorescence intensity)); higher = stronger DNA binding", "method_in_brief": "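Binding intensity is defined as the maximum Masliner-normalised natural-log median intensity across replicate spots for either probe orientation. It was measured on an Agilent 4 × 180k array of primer-extended double-stranded 36-bp intergenic genomic probes and negative controls, to which GST-tagged P. falciparum DNA-binding domains made in E. coli were applied for 1 h in 1× PBS with 1% milk, 0.2 mg/ml BSA, 0.5% salmon testes DNA and 0.03% Triton X-100. Detection was by Alexa488 anti-GST antibody and scanning at 488 nm.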"}
{"sequence": "TATAAACATTAAAGGTGTACAATTTAATTTCAATTT [XGTACX_site2944]", "gcPBM binding intensity (ln)": "11.3 ± 0.83"}
{"sequence": "GTTCTTCCTTGTAAATGTACAAATACAAAATGTTCC [XGTACX_site6738]", "gcPBM binding intensity (ln)": "10.8 ± 0.49"}
{"sequence": "TATTTTCATTATACTACTTCGAAGATACCCTTTTTT [CACACA_negctrl_site256]", "gcPBM binding intensity (ln)": "10.4 ± 0.3"}
{"sequence": "GGAAATTAACAGAACACAATGTAACAATTTCTAACA [CACACA_negctrl_site1250]", "gcPBM binding intensity (ln)": "9.88 ± 0.085"}
{"sequence": "GATATATATGTTCACACACACATGGAAATATATATA [CACACA_site4371]", "gcPBM binding intensity (ln)": "10.2 ± 0.2"}
{"sequence": "TTAAGATCCTAAAAAACACACAATTGCGAATAATAA [CACACA_site6005]", "gcPBM binding intensity (ln)": "10.3 ± 0.16"}
{"sequence": "ATATCATAAAAAATGTGTACATATATGAACATATAA [XGTACX_site2239]", "gcPBM binding intensity (ln)": "11.5 ± 0.64"}
{"sequence": "ATAAATTTTTTTTTTTTTTTTTTTTTTTTTTTTTTT [CACACA_negctrl_site508]", "gcPBM binding intensity (ln)": "11.2 ± 0.73"}
{"sequence": "ATTTTTTTCATAGACACACACAATATATCTGTTTCC [CACACA_site3023]", "gcPBM binding intensity (ln)": "10.12 ± 0.064"}
{"sequence": "TGTTAAAATTATTTGGTGCACTTGTTTTACCTTATT", "gcPBM binding intensity (ln)": "10.5 ± 0.45"}
{"sequence": "TATATTTATTATAACACACACATATAAATATTATAG [CACACA_site6726]", "gcPBM binding intensity (ln)": "10.04 ± 0.064"}
{"sequence": "TATGCACTTTAGGGCAGTACGTCAACATTATCTTTA [XGTACX_site3382]", "gcPBM binding intensity (ln)": "10.9 ± 0.59"}
{"sequence": "CCTCATACGAAATATAAACACACATACAATAAATAA [CACACA_site8620]", "gcPBM binding intensity (ln)": "10.05 ± 0.071"}
{"sequence": "TCTCATAGTAAACACACACACACACCCACATATATA [CACACA_site5034]", "gcPBM binding intensity (ln)": "10.3 ± 0.18"}
{"sequence": "CATTATTCTTTTAATATACACACTTTGTCTTTTCGC [CACACA_site2762]", "gcPBM binding intensity (ln)": "10.1 ± 0.17"}
{"sequence": "ATATTATTATATATAGTGCATATTATTATTTTTATT", "gcPBM binding intensity (ln)": "9.825 ± 0.049"}
{"sequence": "TTTTTTTTTTTTAATGCACACAATATATAATATGTA [CACACA_site3694]", "gcPBM binding intensity (ln)": "10 ± 0.49"}
{"sequence": "AAGATAAAATGATGCACACAAAAGGGTGTAATATAT [CACACA_site1706]", "gcPBM binding intensity (ln)": "10.13 ± 0.049"}
{"sequence": "GAAGTTTTCTTAAAGATGCACTTTTTAAAAATAAAA [GTGCAC_site9941]", "gcPBM binding intensity (ln)": "10.2 ± 0.42"}
{"sequence": "TCTTCTTTTTTTTTTTTGTATTATTATAAATATTAT [CACACA_negctrl_site1668]", "gcPBM binding intensity (ln)": "9.71 ± 0.071"}
{"sequence": "TGTACGTTTTATAACACACACACAAAAAAAAAAAAA [CACACA_site3875]", "gcPBM binding intensity (ln)": "10.8 ± 0.48"}
{"sequence": "TGTAATAATATTTATGTGCACATATATTAAACTATA [GTGCAC_site9584]", "gcPBM binding intensity (ln)": "10.5 ± 0.3"}
{"sequence": "TCATTTCACAGACACACACACACAAGATATTTCCTT [CACACA_site7774]", "gcPBM binding intensity (ln)": "10.1 ± 0.11"}
{"sequence": "TTTTTTTTTTTTCAATCACACATGTTTTAATTATTT [CACACA_site5532]", "gcPBM binding intensity (ln)": "9.685 ± 0.092"}
{"sequence": "TATATATATATATATATACACACTTGTGCAGAATAT [CACACA_site2216]", "gcPBM binding intensity (ln)": "10.1 ± 0.42"}
{"sequence": "ATATTCATGTTGATATGTACTTATTCTATATTGAAT [XGTACX_site8347]", "gcPBM binding intensity (ln)": "11.2 ± 0.86"}
{"sequence": "ATCAGTGATTAGGTTATATATAAAAATGAACTAATA [GTGCAC_negctrl_site647]", "gcPBM binding intensity (ln)": "9.855 ± 0.049"}
{"sequence": "TATGATATTTATATGCGTACTGAAGTATGCCTATTT [XGTACX_site6133]", "gcPBM binding intensity (ln)": "11.2 ± 0.79"}
{"sequence": "AAAAAATTAAAAATACGTACATATATACATATATAT [XGTACX_site4621]", "gcPBM binding intensity (ln)": "11.4 ± 0.92"}
{"sequence": "TCTTAAAATATATAGGTGCAAAAAAAAAAAAAAAAA", "gcPBM binding intensity (ln)": "9.76 ± 0.57"}
{"sequence": "AAAGAAAGAAGACACACACACATATATAAATATCAA [CACACA_site7715]", "gcPBM binding intensity (ln)": "9.93 ± 0.11"}
{"sequence": "AATACAAGAACTGACACACATACATACTACATTTTA [CACACA_site2829]", "gcPBM binding intensity (ln)": "10.3 ± 0.2"}
{"sequence": "ATATTTATATATAGTAGTACTTTCAATAATTTAAAT [XGTACX_site7276]", "gcPBM binding intensity (ln)": "11.4 ± 0.84"}
{"sequence": "ATATAAATTTTTTATGAACACACAAATACAGACACT [CACACA_site8848]", "gcPBM binding intensity (ln)": "10.7 ± 0.47"}
{"sequence": "GTATATGAGAAAAAAAGTACATGCACAAAATGTATA [XGTACX_site6441]", "gcPBM binding intensity (ln)": "11.5 ± 0.79"}
{"sequence": "TGTTTTTATTTATTCTGTACTGAAGAGAGTTATATA [XGTACX_site8859]", "gcPBM binding intensity (ln)": "10.9 ± 0.61"}
{"sequence": "TTTAAATACAGACATACACACATACACCCACATATA [CACACA_site8078]", "gcPBM binding intensity (ln)": "10.5 ± 0.47"}
{"sequence": "TAAGAAATAAATAGTACACACATAGACACAGACACA [CACACA_site4934]", "gcPBM binding intensity (ln)": "11.4 ± 0.93"}
{"sequence": "AAAAAAAAAAGAATAGCACACACACCGATATAAATA [CACACA_site8111]", "gcPBM binding intensity (ln)": "9.96 ± 0.13"}
{"sequence": "TAGGTATGCTCTCAATGTACATAAAATAATTTTACT [XGTACX_site6556]", "gcPBM binding intensity (ln)": "11.1 ± 0.67"}
{"sequence": "ATAATTAAAAAAAATTGTACATATAAATAGAAGATT [XGTACX_site230]", "gcPBM binding intensity (ln)": "11.1 ± 0.53"}
{"sequence": "AGATTAAAATAATATAAACACACATATACTTTTTTC [CACACA_site8085]", "gcPBM binding intensity (ln)": "10.2 ± 0.25"}
{"sequence": "TCATTTTAAAAAAATAGTACTTTAAGAAACTTTTAT [XGTACX_site602]", "gcPBM binding intensity (ln)": "10.9 ± 0.56"}
{"sequence": "TTTTTTTTTTTTTTTTTTTATGTATACATATTTATA [TGCATGCA_negctrl_site234]", "gcPBM binding intensity (ln)": "9.77 ± 0.55"}
{"sequence": "AGCATTAATTATTTCACACATATATATATATATATA [CACACA_site4889]", "gcPBM binding intensity (ln)": "10.1 ± 0.28"}
